Test results reported in paper PMC9619224.
These are yes or no findings as the source states them, for the method shown. In cells and extracts the contact can be indirect. Some results given as binding are weak or reduced against the parent protein; the word gives no strength. For some of these results: Where a sequence is shown, tags or fusion partners need not be part of it.

By UniProt entry, the sequences of proteins in these tests, tags left out.
UniProt P70658: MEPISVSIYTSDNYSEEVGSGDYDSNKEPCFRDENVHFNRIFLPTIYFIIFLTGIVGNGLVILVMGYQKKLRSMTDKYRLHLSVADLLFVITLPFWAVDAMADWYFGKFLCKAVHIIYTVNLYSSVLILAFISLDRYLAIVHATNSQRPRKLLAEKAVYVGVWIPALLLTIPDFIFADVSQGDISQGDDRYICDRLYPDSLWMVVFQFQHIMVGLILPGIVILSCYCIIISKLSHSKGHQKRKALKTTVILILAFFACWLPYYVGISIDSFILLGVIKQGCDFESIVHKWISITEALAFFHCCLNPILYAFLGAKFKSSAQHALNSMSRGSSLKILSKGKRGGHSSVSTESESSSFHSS
UniProt Q76JU9: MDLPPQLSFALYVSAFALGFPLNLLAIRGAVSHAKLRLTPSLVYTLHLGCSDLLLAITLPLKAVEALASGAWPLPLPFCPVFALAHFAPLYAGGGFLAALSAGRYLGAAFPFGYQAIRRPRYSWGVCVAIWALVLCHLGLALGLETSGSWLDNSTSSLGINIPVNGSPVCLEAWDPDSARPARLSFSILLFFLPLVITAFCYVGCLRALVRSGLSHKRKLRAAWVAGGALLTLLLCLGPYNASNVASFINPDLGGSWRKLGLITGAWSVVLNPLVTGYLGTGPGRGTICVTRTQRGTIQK
UniProt Q9EPB7: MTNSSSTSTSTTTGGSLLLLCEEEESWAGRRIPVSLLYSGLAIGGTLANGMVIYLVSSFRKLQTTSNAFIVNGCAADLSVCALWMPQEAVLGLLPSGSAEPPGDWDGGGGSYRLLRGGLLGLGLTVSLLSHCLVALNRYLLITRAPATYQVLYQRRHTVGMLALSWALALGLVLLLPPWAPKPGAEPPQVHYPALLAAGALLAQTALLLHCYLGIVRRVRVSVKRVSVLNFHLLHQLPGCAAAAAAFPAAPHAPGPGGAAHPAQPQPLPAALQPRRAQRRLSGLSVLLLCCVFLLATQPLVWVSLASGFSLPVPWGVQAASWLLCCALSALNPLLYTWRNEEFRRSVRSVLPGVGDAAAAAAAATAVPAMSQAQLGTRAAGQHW
UniProt Q64326: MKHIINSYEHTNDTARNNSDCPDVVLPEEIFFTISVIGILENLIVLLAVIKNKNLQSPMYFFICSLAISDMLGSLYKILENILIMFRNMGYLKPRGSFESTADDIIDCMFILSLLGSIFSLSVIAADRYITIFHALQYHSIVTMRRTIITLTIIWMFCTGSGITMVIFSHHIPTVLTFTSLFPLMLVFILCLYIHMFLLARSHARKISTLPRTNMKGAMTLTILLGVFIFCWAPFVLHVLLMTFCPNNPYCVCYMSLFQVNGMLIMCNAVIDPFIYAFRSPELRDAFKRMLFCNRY
UniProt Q924H0: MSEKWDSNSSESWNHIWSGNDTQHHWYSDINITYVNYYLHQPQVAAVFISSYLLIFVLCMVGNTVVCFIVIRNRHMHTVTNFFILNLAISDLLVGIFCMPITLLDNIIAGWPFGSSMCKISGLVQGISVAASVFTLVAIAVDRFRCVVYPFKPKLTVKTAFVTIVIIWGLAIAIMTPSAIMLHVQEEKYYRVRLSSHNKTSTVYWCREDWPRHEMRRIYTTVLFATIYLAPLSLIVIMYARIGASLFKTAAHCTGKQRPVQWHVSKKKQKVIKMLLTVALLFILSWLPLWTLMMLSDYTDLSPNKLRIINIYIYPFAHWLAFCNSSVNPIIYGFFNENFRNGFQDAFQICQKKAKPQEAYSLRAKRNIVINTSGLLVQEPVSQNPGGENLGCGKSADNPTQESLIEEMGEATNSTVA
UniProt O88319: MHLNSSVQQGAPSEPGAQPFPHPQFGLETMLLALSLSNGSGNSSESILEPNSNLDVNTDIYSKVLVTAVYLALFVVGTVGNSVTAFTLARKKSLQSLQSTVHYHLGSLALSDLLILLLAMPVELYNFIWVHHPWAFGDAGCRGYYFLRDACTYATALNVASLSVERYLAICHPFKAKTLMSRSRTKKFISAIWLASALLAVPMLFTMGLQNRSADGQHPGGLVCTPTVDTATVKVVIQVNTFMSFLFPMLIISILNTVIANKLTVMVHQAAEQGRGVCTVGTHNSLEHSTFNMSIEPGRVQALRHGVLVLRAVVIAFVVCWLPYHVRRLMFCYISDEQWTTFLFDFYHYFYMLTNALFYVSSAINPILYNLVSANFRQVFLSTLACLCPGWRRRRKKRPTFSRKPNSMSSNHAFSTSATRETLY
UniProt P70310: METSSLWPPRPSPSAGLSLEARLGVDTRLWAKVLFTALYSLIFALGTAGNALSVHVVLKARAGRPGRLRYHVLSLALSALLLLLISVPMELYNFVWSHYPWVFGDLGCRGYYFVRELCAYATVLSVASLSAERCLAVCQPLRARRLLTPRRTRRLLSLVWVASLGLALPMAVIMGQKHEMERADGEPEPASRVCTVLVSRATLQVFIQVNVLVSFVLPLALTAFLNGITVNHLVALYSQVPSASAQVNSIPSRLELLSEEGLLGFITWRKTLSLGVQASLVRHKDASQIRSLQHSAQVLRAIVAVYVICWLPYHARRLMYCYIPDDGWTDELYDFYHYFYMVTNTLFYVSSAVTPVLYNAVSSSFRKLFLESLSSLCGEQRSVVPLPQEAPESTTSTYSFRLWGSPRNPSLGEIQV
UniProt P32240: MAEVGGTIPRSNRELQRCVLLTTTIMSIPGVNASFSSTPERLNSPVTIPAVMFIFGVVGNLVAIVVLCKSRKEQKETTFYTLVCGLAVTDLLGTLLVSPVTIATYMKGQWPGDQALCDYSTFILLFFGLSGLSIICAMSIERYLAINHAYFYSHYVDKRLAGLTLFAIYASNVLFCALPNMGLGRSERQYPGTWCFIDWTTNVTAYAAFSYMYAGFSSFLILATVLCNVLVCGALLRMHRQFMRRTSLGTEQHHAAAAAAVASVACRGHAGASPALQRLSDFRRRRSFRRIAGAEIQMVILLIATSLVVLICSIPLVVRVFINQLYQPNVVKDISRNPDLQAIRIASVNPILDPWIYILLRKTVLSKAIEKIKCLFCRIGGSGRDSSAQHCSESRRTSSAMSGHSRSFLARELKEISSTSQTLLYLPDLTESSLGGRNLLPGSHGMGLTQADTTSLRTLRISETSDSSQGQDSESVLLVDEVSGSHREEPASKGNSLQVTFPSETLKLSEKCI

How the values were obtained:
Experiment in all cases: co-IP; HEK293T cells transfected with 3xHA-GPCR and 2xFlag-MRAP1 or MRAP2; GPCR immunoprecipitated with rabbit anti-HA, Protein A/G agarose, overnight at 4°C; MRAP detected by mouse anti-Flag blot
[1] = biological target: T1, Adrenergic receptor, alpha 1b (mouse) (UniProt P97717)
T1 sequence: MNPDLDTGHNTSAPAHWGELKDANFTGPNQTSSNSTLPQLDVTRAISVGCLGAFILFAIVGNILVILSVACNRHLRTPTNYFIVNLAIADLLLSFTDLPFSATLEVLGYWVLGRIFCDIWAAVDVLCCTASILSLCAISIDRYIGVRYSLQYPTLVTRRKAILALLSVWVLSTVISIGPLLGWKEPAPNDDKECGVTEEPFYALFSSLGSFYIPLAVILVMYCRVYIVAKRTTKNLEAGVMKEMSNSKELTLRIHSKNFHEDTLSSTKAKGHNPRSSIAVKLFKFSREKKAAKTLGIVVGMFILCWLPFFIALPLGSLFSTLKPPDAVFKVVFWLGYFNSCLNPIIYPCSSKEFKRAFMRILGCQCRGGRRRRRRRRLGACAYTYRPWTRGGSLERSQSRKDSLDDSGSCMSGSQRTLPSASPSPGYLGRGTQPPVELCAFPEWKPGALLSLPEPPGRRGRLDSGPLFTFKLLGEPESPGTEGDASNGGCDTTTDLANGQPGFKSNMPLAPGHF

[2] = biological target: Chemokine (C‐X‐C motif) receptor 4 (mouse) (UniProt P70658)
[3] = biological target: Free fatty acid receptor 1 (mouse) (UniProt Q76JU9)
[4] = biological target: G protein‐coupled receptor 88 (mouse) (UniProt Q9EPB7)
[5] = biological target: Melanocortin 2 receptor (mouse) (UniProt Q64326)
[6] = biological target: Neuropeptide FF receptor 2 (mouse) (UniProt Q924H0)
[7] = biological target: Neurotensin receptor 1 (mouse) (UniProt O88319)
[8] = biological target: Neurotensin receptor 2 (mouse) (UniProt P70310)
[9] = biological target: T2, Prostaglandin E receptor 1 (subtype EP1) (mouse) (UniProt P35375)
T2 sequence: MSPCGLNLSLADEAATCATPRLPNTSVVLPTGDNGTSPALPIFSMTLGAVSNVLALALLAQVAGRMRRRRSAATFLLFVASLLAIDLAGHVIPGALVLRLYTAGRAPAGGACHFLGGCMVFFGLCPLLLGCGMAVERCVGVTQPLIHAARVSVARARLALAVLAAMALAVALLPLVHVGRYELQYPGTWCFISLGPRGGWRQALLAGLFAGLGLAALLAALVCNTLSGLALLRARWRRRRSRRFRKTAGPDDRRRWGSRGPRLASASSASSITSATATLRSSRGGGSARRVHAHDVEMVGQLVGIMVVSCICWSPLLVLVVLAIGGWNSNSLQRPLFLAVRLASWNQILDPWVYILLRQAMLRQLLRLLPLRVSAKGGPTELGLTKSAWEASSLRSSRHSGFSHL

[10] = biological target: T3, Prostaglandin E receptor 3 (subtype EP3) (mouse) (UniProt P30557)
T3 sequence: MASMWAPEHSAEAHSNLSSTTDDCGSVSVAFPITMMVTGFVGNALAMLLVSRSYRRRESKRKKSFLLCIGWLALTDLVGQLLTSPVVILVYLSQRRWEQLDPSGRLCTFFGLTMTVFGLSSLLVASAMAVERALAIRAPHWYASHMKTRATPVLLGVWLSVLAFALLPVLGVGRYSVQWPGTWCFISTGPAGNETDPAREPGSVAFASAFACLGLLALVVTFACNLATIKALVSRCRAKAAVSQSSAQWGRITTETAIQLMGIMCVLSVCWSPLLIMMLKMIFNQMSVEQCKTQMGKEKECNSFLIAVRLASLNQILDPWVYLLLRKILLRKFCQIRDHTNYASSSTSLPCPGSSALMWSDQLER

[11] = biological target: Prostaglandin E receptor 4 (subtype EP4) (mouse) (UniProt P32240)

B1: melanocortin receptor accessory protein MRAP1 (protein, UniProt Q9D159 1-127)
chain: MANGTDASVPLTSYEYYLDYIDLIPVDEKKLKANKHSIVIALWLSLATFVVLLFLILLYMSWSGSPQMRHSPQPQPICSWTHSFNLPLCLRRASLQTTEEPGRRAGTDQWLTQQSPSASAPGPLALP
[1]
  binding: binds
[2]
  binding: no binding
[3]
  binding: no binding
[4]
  binding: binds
[5]
  binding: binds
[6]
  binding: binds
[7]
  binding: no binding
[8]
  binding: binds
[9]
  binding: no binding
[10]
  binding: binds
[11]
  binding: binds

B2: melanocortin receptor accessory protein MRAP2 (protein, UniProt D3Z1Q2 1-207)
chain: MEMSAQRLASNRTSPQSPSNSDYTWEYEYYEIGPVSFEGLKAHKYSIVIGFWVGLAVFVIFMFFVLTLLTKTGAPHQDNAESSERRFRMNSFVSDFGKPLESDKVFSRQGNEESRSLFHCYINEVEHLDRVKVCHQTTAIDSDVHLQEASRSSGRPEEELARFMKFDIPNFVNTEQSSFGEDDLLISEAPVLLENKPVSQTSRIDLD
[1]
  binding: binds
[2]
  binding: binds
[3]
  binding: binds
[4]
  binding: binds
[5]
  binding: binds
[6]
  binding: binds
[7]
  binding: no binding
[8]
  binding: binds
[9]
  binding: binds
[10]
  binding: binds
[11]
  binding: binds
